# According to the supplement of paper PMC9135407:
# Where “and” joins values, the source holds several entries; their conditions need not be identical. Equal entries are not always repeated. Structures can show the parent of a compound that is named as a salt. Hit rate of the full screen: of about 5,800 compounds, about 620 (11%) showed activity.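 The calls were made as follows: active = score above a cut-off or among the top three wells of a plate; in these data no inactive exceeds 0.85.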 Only a part is listed here, and it is no random draw.
# Test system: primary human hepatic stellate cells (donor 1)
# Experiment: scaled lipid accumulation score (0 = DMSO-like, 1 = nortriptyline-like); higher = stronger HSC inactivation (lipid re-accumulation), active = hit call of the paper
# Conditions: 48 h
# [1] = library stock concentration: 3.33 mM
# [2] = library stock concentration: 10 mM
# [3] = library stock concentration: 1 mM
# [4] = library stock concentration: 80 uM
# [5] = library stock concentration: 400 uM
# [6] = library stock concentration: 2 mM
smiles,measurement,setting,value
CCc1ccc(/C=C2/SC(=S)NC2=O)cc1,scaled lipid accumulation score,[1],inactive: ≤ -0.009
same,scaled lipid accumulation score,[2],inactive: 0.069 and inactive: 0.032
CC(=Nc1ccccc1N)c1c(C)cc(=O)n(O)c1O,scaled lipid accumulation score,[2],inactive: ≤ 0
CC1(COc2ccc3c(c2)ncn3-c2ccc3cccc(N4CCC(N)CC4)c3n2)COC1,scaled lipid accumulation score,[1],active: 0.869
CCN(CC)CCNC(=O)c1cc(Br)c(N)cc1OC [Bromopride],scaled lipid accumulation score,,inactive: ≤ 0
same,scaled lipid accumulation score,[2],inactive: ≤ -0.027
CCCCC(=O)N(Cc1ccc(-c2ccccc2-c2nnn[nH]2)cc1)[C@H](C(=O)O)C(C)C,scaled lipid accumulation score,[2],inactive: ≤ 0
CCCCC(=O)N(Cc1ccc(-c2ccccc2-c2nnn[nH]2)cc1)[C@H](C(=O)O)C(C)C [Valsartan],scaled lipid accumulation score,[1],inactive: ≤ 0
same,scaled lipid accumulation score,[2],inactive: ≤ 0 and inactive: ≤ -0.027
CC(C)=CCC/C(C)=C/CC/C(C)=C/CSc1ccccc1C(N)=O [Farnesyl Thiosalicylic Acid Amide],scaled lipid accumulation score,[3],inactive: ≤ 0
COc1cc(Nc2ncc3c(n2)-c2ccc(Cl)cc2C(c2c(F)cccc2OC)=NC3)ccc1C(=O)O [Alisertib],scaled lipid accumulation score,[4],inactive: ≤ 0
same,scaled lipid accumulation score,[5],inactive: ≤ 0
same,scaled lipid accumulation score,[6],inactive: ≤ 0
same,scaled lipid accumulation score,[2],inactive: ≤ 0
COc1cc(Nc2ncc3c(n2)-c2ccc(Cl)cc2C(c2c(F)cccc2OC)=NC3)ccc1C(=O)O [Alisertib (MLN8237)],scaled lipid accumulation score,[1],inactive: ≤ 0
same,scaled lipid accumulation score,[2],inactive: ≤ 0
OC(CCN1CCCCC1)(c1ccccc1)c1ccccc1 [Pridinol methanesulfonate salt],scaled lipid accumulation score,,inactive: 0.044
OC(CCN1CCCCC1)(c1ccccc1)c1ccccc1 [Pridinol methanesulfonate],scaled lipid accumulation score,[2],inactive: ≤ -0.027
C=CCNc1ncnc2ccc(Br)cc12,scaled lipid accumulation score,[2],inactive: ≤ 0
OCC(CO)N[C@H]1C[C@](O)(CO)[C@@H](O)[C@H](O)[C@H]1O [Voglibose],scaled lipid accumulation score,[1],inactive: ≤ 0
same,scaled lipid accumulation score,[2],inactive: 0.073 and inactive: 0.011
N[C@@H](CO)c1ccccc1 [(R)-(-)-2-Phenylglycinol],scaled lipid accumulation score,[3],inactive: ≤ 0
Cc1ccc([C@@H]2O[C@H](CO)[C@@H](O)[C@H](O)[C@H]2O)cc1Cc1ccc(-c2ccc(F)cc2)s1 [Canagliflozin],scaled lipid accumulation score,[1],inactive: ≤ 0
same,scaled lipid accumulation score,[2],inactive: ≤ 0
CC(C)(C)c1cc(C(C)(C)C)c(NC(=O)c2c[nH]c3ccccc3c2=O)cc1O [Ivacaftor (VX-770)],scaled lipid accumulation score,[1],inactive: 0.075
same,scaled lipid accumulation score,[2],inactive: ≤ 0
Cc1ccc(C(=O)Nc2cccc(C(F)(F)F)c2)cc1-c1ccc2nc(NCCN3CCOCC3)ncc2c1,scaled lipid accumulation score,[2],active: 1.34
CC(=O)N(CC(O)CO)c1c(I)c(C(=O)NCCO)c(I)c(C(=O)NCC(O)CO)c1I (configuration not stated),scaled lipid accumulation score,[2],inactive: ≤ 0
CN1CCN(CC(=O)N2c3ccccc3C(=O)Nc3cccnc32)CC1 [Pirenzepine 2HCl],scaled lipid accumulation score,library stock concentration: 5.7 mM,inactive: ≤ -0.006
CN1CCN(CC(=O)N2c3ccccc3C(=O)Nc3cccnc32)CC1 [Pirenzepine hydrochloride],scaled lipid accumulation score,library stock concentration: 4.7 mM,inactive: ≤ 0
same,scaled lipid accumulation score,[2],inactive: ≤ 0
CN1CCN(CC(=O)N2c3ccccc3C(=O)Nc3cccnc32)CC1 [Pirenzepine dihydrochloride],scaled lipid accumulation score,,inactive: ≤ 0
same,scaled lipid accumulation score,[2],inactive: ≤ 0
CN(CCCCCCCCCCN(C)C(=O)Oc1cccc([N+](C)(C)C)c1)C(=O)Oc1cccc([N+](C)(C)C)c1 [Demecarium bromide],scaled lipid accumulation score,,inactive: ≤ 0
CC(=O)N(CC(O)CO)c1c(I)c(C(=O)NCC(O)CO)c(I)c(C(=O)NCC(O)CO)c1I (configuration not stated) [Iohexol],scaled lipid accumulation score,,inactive: ≤ 0
COC(=O)Nc1nc2cc(Sc3ccccc3)ccc2[nH]1 [Fenbendazole],scaled lipid accumulation score,,inactive: 0.055
same,scaled lipid accumulation score,[1],inactive: 0.145
same,scaled lipid accumulation score,library stock concentration: 6.7 mM,inactive: 0.402 and inactive: 0.539
same,scaled lipid accumulation score,[2],inactive: 0.19 and inactive: 0.069
CCCCC/C=C\C[C@@H](O)/C=C/C=C\C/C=C\CCCC(=O)O,scaled lipid accumulation score,library stock concentration: 100 uM,inactive: ≤ -0.021
COCC(=O)NC/C=C/c1ccc2ncnc(Nc3ccc(Oc4ccc(C)nc4)c(C)c3)c2c1,scaled lipid accumulation score,[4],inactive: ≤ 0
same,scaled lipid accumulation score,[5],inactive: ≤ 0 and inactive: ≤ -0.005
same,scaled lipid accumulation score,[6],inactive: ≤ 0 and inactive: ≤ -0.005
same,scaled lipid accumulation score,[2],inactive: 0.108
Cn1c(=O)c2c(ncn2CC2OCCO2)n(C)c1=O [Doxofylline],scaled lipid accumulation score,[1],inactive: ≤ 0
same,scaled lipid accumulation score,library stock concentration: 7.5 mM,inactive: 0.036
same,scaled lipid accumulation score,[2],inactive: ≤ -0.001
CCN(CC)CCCCNc1ncc2cc(-c3cc(OC)cc(OC)c3)c(NC(=O)NC(C)(C)C)nc2n1,scaled lipid accumulation score,[6],active: 1.12
same,scaled lipid accumulation score,[2],active: 1.22
C=CC(=O)Nc1cccc(Sc2nc(Nc3ccc(N4CCN(C)CC4)cc3)ncc2Cl)c1,scaled lipid accumulation score,[1],inactive: ≤ 0
same,scaled lipid accumulation score,[2],inactive: 0.466
CCCCNc1ncc(C(=O)NCc2ccc(-n3ccnc3)cc2)c(NC2CCC(O)CC2)n1 (configuration not stated),scaled lipid accumulation score,[1],inactive: 0.129
same,scaled lipid accumulation score,[2],inactive: 0.435
CC(CN(C)C)CN1c2ccccc2Sc2ccccc21.O=C(O)C(O)C(O)C(=O)O (configuration not stated) [Trimeprazine tartrate],scaled lipid accumulation score,library stock concentration: 4.5 mM,active: 0.915
CCOC(=O)[C@H]1O[C@@H]1C(=O)N[C@@H](CC(C)C)C(=O)NCCC(C)C [Aloxistatin],scaled lipid accumulation score,[1],inactive: ≤ -0.009
same,scaled lipid accumulation score,[2],inactive: ≤ 0
NC(Cn1ccc(=O)c(O)c1)C(=O)O (configuration not stated) [Mimosine],scaled lipid accumulation score,,inactive: ≤ 0
same,scaled lipid accumulation score,[2],inactive: ≤ 0
"c(c1N)(C(=O)\N=C(\N)/N)nc(c(N2CCCCCC2)n1)Cl [5-(N,N-hexamethylene)amiloride]",scaled lipid accumulation score,[2],active: 1.13
CC(=O)OC[C@H]1O[C@@H]([S-])[C@H](OC(C)=O)[C@@H](OC(C)=O)[C@@H]1OC(C)=O.CCP(CC)CC.[Au+] [Auranofin],scaled lipid accumulation score,[2],inactive: 0.439
CNCc1cn(C2CCN(CCC(C)CC(C)(C)C)CC2)nn1 (configuration not stated),scaled lipid accumulation score,[2],active: 1.05
COc1cc(Nc2c(C#N)cnc3cc(OCCCN4CCN(C)CC4)c(OC)cc23)c(Cl)cc1Cl [Bosutinib (SKI-606)],scaled lipid accumulation score,[1],inactive: 0.374
same,scaled lipid accumulation score,[2],inactive: 0.395
COc1cc(Nc2c(C#N)cnc3cc(OCCCN4CCN(C)CC4)c(OC)cc23)c(Cl)cc1Cl [Bosutinib],scaled lipid accumulation score,[4],inactive: ≤ -0.016
same,scaled lipid accumulation score,[5],inactive: ≤ -0.016
same,scaled lipid accumulation score,[6],inactive: ≤ -0.016
same,scaled lipid accumulation score,[2],inactive: ≤ -0.016
COc1cc(Nc2c(C#N)cnc3cc(OCCCN4CCN(C)CC4)c(OC)cc23)c(Cl)cc1Cl [Bosutinib (SKI-606) (0.4 mM)],scaled lipid accumulation score,[5],inactive: ≤ -0.005
COc1cc(Nc2c(C#N)cnc3cc(OCCCN4CCN(C)CC4)c(OC)cc23)c(Cl)cc1Cl [Bosutinib (SKI-606) (10 mM)],scaled lipid accumulation score,[2],inactive: 0.388
COc1cc(Nc2c(C#N)cnc3cc(OCCCN4CCN(C)CC4)c(OC)cc23)c(Cl)cc1Cl [Bosutinib (SKI-606) (2 mM)],scaled lipid accumulation score,[6],inactive: 0.096
CCCCc1oc2ccc(NS(C)(=O)=O)cc2c1C(=O)c1ccc(OCCCN(CCCC)CCCC)cc1 [Dronedarone HCl],scaled lipid accumulation score,[1],inactive: 0.642
same,scaled lipid accumulation score,[2],inactive: 0.263
Cc1ccc(Nc2cc(-c3cccc(N4C(=O)c5ccccc5C4=O)c3)ncn2)cc1NS(C)(=O)=O,scaled lipid accumulation score,[4],inactive: 0.083
same,scaled lipid accumulation score,[5],inactive: ≤ -0.016
same,scaled lipid accumulation score,[6],inactive: ≤ -0.016
same,scaled lipid accumulation score,[2],inactive: 0.08
CCC1(c2ccccc2)C(=O)NCNC1=O [Primidone],scaled lipid accumulation score,,inactive: ≤ 0
same,scaled lipid accumulation score,[1],inactive: ≤ 0
same,scaled lipid accumulation score,library stock concentration: 9.2 mM,inactive: ≤ 0
same,scaled lipid accumulation score,[2],inactive: ≤ 0
CCC1(c2ccccc2)C(=O)NCNC1=O,scaled lipid accumulation score,[2],inactive: ≤ 0
CCn1cc(-c2ccnc3[nH]c(-c4cccc(CN(C)C)c4)cc23)c(-c2ccc(NC(=O)N(C)C)cc2)n1,scaled lipid accumulation score,[2],active: 0.863
COC(=O)N[C@H](C(=O)N1CCC[C@H]1c1ncc(-c2ccc(-c3ccc(-c4cnc([C@@H]5CCCN5C(=O)[C@@H](NC(=O)OC)C(C)C)[nH]4)cc3)cc2)[nH]1)C(C)C,scaled lipid accumulation score,[2],active: 1.04
N#Cc1ccc2c(c1)N(CCCN1CCC(O)CC1)c1ccccc1S2 [Periciazine],scaled lipid accumulation score,[2],inactive: 0.107
COc1cc2nccc(Oc3ccc(NC(=O)Nc4ccc(F)cc4F)c(F)c3)c2cc1OC,scaled lipid accumulation score,[2],active: 1.05
COC(=O)C1=C(C)NC(C)=C(C(=O)OC(C)(C)CN(C)CCC(c2ccccc2)c2ccccc2)C1c1cccc([N+](=O)[O-])c1 (configuration not stated) [Lercanidipine hydrochloride hemihydrate],scaled lipid accumulation score,[2],inactive: 0.321
C[C@]12CCC(=O)C=C1CC[C@@H]1[C@@H]2CC[C@@]2(C)[C@H]1CC[C@]2(O)C(=O)CO [Cortexolone],scaled lipid accumulation score,[2],inactive: ≤ 0
C[C@]12CCC(=O)C=C1CC[C@@H]1[C@@H]2CC[C@@]2(C)[C@H]1CC[C@]2(O)C(=O)CO [Reichstein?s substance?S],scaled lipid accumulation score,[2],inactive: ≤ 0
CN1CC(O)C(O)C(O)C1CO (configuration not stated) [N-Methyl-1-deoxynojirimycin],scaled lipid accumulation score,[2],inactive: ≤ -0.07
CCCCn1c2ccc(O)cc2c2c3c(c(-c4ccccc4Cl)cc21)C(=O)NC3=O [Wee1 Inhibitor II],scaled lipid accumulation score,[1],inactive: ≤ 0
COc1ccc(Cl)cc1NC(=O)Nc1cc(C)nc2ccccc12 [IGF-1R Inhibitor II],scaled lipid accumulation score,[1],inactive: 0.188
COc1ccc(Cl)cc1NC(=O)Nc1cc(C)nc2ccccc12,scaled lipid accumulation score,[1],inactive: 0.097
same,scaled lipid accumulation score,[2],inactive: 0.391
"COc1ccccc1N1CCN(CCCNc2c(C)c(=O)n(C)c(=O)n2C)CC1 [Urapidil, 5-Methyl-]",scaled lipid accumulation score,[2],inactive: ≤ 0
O=C1CC[C@@H](C(=O)N2CSC[C@H]2C(=O)O)N1 [Pidotimod],scaled lipid accumulation score,[1],inactive: 0.045
same,scaled lipid accumulation score,[2],inactive: ≤ 0
O=C1CC[C@@H](C(=O)N2CSC[C@H]2C(=O)O)N1,scaled lipid accumulation score,[2],inactive: ≤ 0
